Data as given in PubChem BioAssay AID1259400 (National Center for Advancing Translational Sciences (NCATS), 2018).
In all, about 350,000 compounds went through this assay and about 2,100 (0.6%) were called active. The inconclusive results got no clear call from the source; some entries with a clear call stand among them for comparison.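 The calls were made as follows: active = activity change of -60% or lower, but not beyond a set lower limit; inconclusive = change between -60% and -40%, or beyond the set limit; inactive = change above -40%.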

Each compound was assayed against Relaxin receptor 1 (Homo sapiens) (UniProt Q9HBX9) (assay: qHTS Assay for Antagonists of the Relaxin Receptor RXFP1). Settings: HEK293-RXFP1, relaxin-stimulated cAMP HTRF, 30 min; at 57.5 µM; stronger effect = lower value.
UniProt Q9HBX9, sequence (Q9HBX9 whole entry, looked up): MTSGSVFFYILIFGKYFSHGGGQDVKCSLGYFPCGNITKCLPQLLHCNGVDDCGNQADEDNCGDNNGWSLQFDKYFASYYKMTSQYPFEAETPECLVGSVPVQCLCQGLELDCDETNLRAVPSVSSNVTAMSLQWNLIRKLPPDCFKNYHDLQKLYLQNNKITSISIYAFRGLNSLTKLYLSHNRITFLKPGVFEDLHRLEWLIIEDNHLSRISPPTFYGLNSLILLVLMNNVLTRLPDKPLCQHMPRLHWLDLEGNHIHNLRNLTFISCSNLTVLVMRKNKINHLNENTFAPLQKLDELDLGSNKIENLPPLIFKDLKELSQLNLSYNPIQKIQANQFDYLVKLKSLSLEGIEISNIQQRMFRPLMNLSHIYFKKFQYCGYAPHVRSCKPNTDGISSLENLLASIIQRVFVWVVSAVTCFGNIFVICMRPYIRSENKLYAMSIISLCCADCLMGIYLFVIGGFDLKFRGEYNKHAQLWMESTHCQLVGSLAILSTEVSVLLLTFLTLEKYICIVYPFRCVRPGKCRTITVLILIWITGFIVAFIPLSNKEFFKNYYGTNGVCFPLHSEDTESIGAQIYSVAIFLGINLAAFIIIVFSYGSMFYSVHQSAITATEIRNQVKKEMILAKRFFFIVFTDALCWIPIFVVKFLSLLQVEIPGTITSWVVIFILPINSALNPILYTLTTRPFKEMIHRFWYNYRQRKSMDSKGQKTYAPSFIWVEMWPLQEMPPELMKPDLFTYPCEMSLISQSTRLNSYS
% is scaled to controls: 0 for no effect and ±100 for the full control effect.

Compound | activity change, negative = inhibition
CCOC(=O)C1(Cc2ccccc2)CCN(Cc2ccc3cc(NC(C)=O)ccc3n2)CC1 | inconclusive: -58.3%
Oc1c(C=NCc2ccncc2)sc2ccccc12 | inactive: 7.19%
FC(F)(F)c1cccc(N2CCN(CC3CC=CCC3)CC2)c1 (stereo unspecified) | inconclusive: -47.7%
CC1CCCN(CCCOc2ccc(Br)cc2Cl)C1 (stereo unspecified) | inconclusive: -59.2%
COc1cc(C2C(C(C)=O)=C(O)C(=O)N2CCN2CCOCC2)ccc1O (stereo unspecified) | inactive: 1.48%
O=c1c(-c2n[nH]c(=S)n2-c2ccccc2)cccn1Cc1cccc(Cl)c1 | inconclusive: -45.9%
Cc1cccc(CSc2cn(CC(=O)N3CCCC3)c3ccccc23)c1 | inconclusive: -59.4%
O=C(CCNC(=O)N1CC(=O)Nc2ccccc21)NCc1cccc(Cl)c1 | active: -92.3%
Cc1cc(CN2CCCC(N3CCc4ccccc4C3)C2)cc(C)c1O (stereo unspecified) | inactive: -3.42%
Cc1cc(C)cc(NS(=O)(=O)c2ccc3[nH]cc(C(=O)N4CCCC4)c(=O)c3c2)c1 | inactive: 3.63%
O=c1cc(NCc2ccco2)c2ccccc2o1 | inconclusive: -42.3%
CCc1nnc(N2CCN(c3ncnc4c3oc3ccccc34)CC2)s1 | inconclusive: -58.8%
CC(=O)c1cccc(NC(=O)NC2CCCc3ccccc32)c1 (stereo unspecified) | inactive: 3.51%
O=C(c1ccco1)N1CCN(Cc2ccccc2Br)CC1 | inactive: 7.36%
CCCc1ccc(S(=O)(=O)N2CCC(Oc3ccc(-n4cnnn4)cc3)CC2)cc1 | inactive: -23.2%
COc1ccc2o/c(=N/NC(=O)c3cccs3)c(C(N)=O)cc2c1 | inactive: 3.18%
Cc1nc(N2CCCCC2)c2c(C)c(C(=O)Nc3ccccc3C(F)(F)F)sc2n1 | inactive: -14.5%
COc1cccc(CN2CCc3nc(N4CCN(c5ncccn5)CC4)ncc3C2)c1 | inconclusive: -47.8%
CC(=O)Nc1sc2c(c1C(c1ccc(Cl)cc1)N1CCOCC1)CCCC2 (stereo unspecified) | inconclusive: -47.6%
O=C(Cn1cc(SCc2ccc(C(F)(F)F)cc2)c2ccccc21)N1CCCC1 | inconclusive: -53.1%
Nc1nc(SCC(=O)Nc2ccc(C(F)(F)F)cc2)[nH]c(=O)c1NC(=O)c1ccc(F)c(F)c1 | inconclusive: -45.6%
COc1ccc(NC(=O)CSCc2cnn(-c3ccccc3)c2-n2cccc2)cc1 | inconclusive: -54.3%

Compound | activity change, negative = inhibition
COc1ccc(/C=C2/SC(=S)N(c3ccc(S(=O)(=O)Nc4nccs4)cc3)C2=O)cc1 | active: -79.6%
CC1CCCC(NC(=O)COC(=O)c2ccc([N+](=O)[O-])o2)C1C (stereo unspecified) | inactive: 13.2%
CC1CCc2c(sc3nc(C(C)(C)C)nc(N4CCN(C(=O)CCl)CC4)c23)C1 (stereo unspecified) | inconclusive: -54.2%
C[C@@H]1CCCCO[C@H](CN(C)C(=O)c2ccccc2)[C@@H](C)CN([C@H](C)CO)C(=O)c2cc(NC(=O)c3ccncc3)ccc2O1 | inactive: -7.84%
C[n+]1cccc(/C=N/Nc2nc(Cl)c(C#N)c(Cl)c2Cl)c1 | inconclusive: -40.8%
CC(C)c1ccc(OCC(O)CNC(C)c2ccccc2)cc1 (stereo unspecified) | inconclusive: -48.3%
CC(=NCC1CCCO1)c1c(O)[nH]c(=O)[nH]c1=O (stereo unspecified) | inconclusive: -43.7%
COc1cccc(CNC(=O)CCCn2c(=S)[nH]c3cc4c(cc3c2=O)OCO4)c1 | active: -70.9%
Clc1ccc(CN2CCN(c3ncccn3)CC2)cc1Cl | inconclusive: -50.1%
Cc1ccc(C)c(N(C)C(=O)c2ccc3c(=O)n4c(nc3c2)CCCCC4)c1 | active: -102%
CCC(=O)N1CCc2cc(Br)cc(S(=O)(=O)CC(=O)OC)c21 | inactive: -11%
COc1ccc2c(C)nc(N/C(N)=N/S(=O)(=O)c3ccc(C)cc3)nc2c1 | inconclusive: -41.5%
NC(CSC(c1ccccc1)(c1ccccc1)c1cccc2ccccc12)C(=O)O (stereo unspecified) | inconclusive: -50.8%
O=Cc1c(-c2ccccc2)cc2oc3ccccc3cc1-2 | inactive: 6.78%
CCN1CCN(CC(=O)n2c3c(c4ccccc42)CC(C)CC3)CC1 (stereo unspecified) | inconclusive: -41.6%
CS(=O)(=O)c1nc(-c2ccc(Br)cc2)cc(-c2ccccc2)c1C#N | inactive: 6.92%
Cc1ccc(-n2ncc3c(Nc4ccccc4C)ncnc32)cc1 | inconclusive: -55.9%
Cc1ccc(C)c(N2CCN(C(=O)c3ccc4nc(N5CCOCC5)sc4c3)CC2)c1 | inconclusive: -58.1%
COc1ccccc1N1CCN(C(=O)c2cc3cc(C)ccc3[nH]2)CC1 | inconclusive: -48.6%
O=C(Nc1ccc2oc(-c3ccccc3F)nc2c1)c1ccc2c(c1)OCCO2 | inconclusive: -44%
O=C(O)c1ccc(NC(=S)NC(=O)c2ccc(-c3ccccc3)cc2)cc1 | inconclusive: -47.9%
Cc1nn2c(C)c(C(=O)NCC(C)c3ccccc3)cnc2c1-c1ccccc1 (stereo unspecified) | inconclusive: -42.7%

Compound | activity change, negative = inhibition
Fc1ccc(Cn2c(-c3cccc(Br)c3)nc3ccccc32)cc1 | inconclusive: -52.2%
Cc1nc(CSc2nsc(/C=C/N(C)C)c2C#N)cs1 | inconclusive: -47.2%
CCOC(=O)C1=C(C)NC(=S)NC1c1ccco1 (stereo unspecified) | inconclusive: -58.4%
COc1cc(/C=C(/C#N)C(=O)Nc2cc(C(F)(F)F)ccc2Cl)ccc1OCC(=O)Nc1cccc(C(F)(F)F)c1 | inconclusive: -42.4%
COc1ccccc1N1CCN(Cc2cc3c(cc2Br)OCCO3)CC1 | inconclusive: -47.7%
Cc1ccc(NC(=S)Nc2ccc(C(C)C)cc2)cc1S(=O)(=O)N1CCCCCC1 | inconclusive: -47.2%
O=C1c2[nH]nc(-c3ccccc3O)c2C(c2cccc(Cl)c2)N1Cc1cccnc1 (stereo unspecified) | inconclusive: -42%
Cc1ccc2c(c1)nnn2C1CCN(S(=O)(=O)c2cccc(S(=O)(=O)N(C)C)c2)CC1 | inactive: 0.764%
CC(C)Oc1ccc(C(CCN)C2CCCCC2)cc1 (stereo unspecified) | active: -75.2%
CN(c1ccccc1)S(=O)(=O)c1ccc(NC(=O)c2ccco2)cc1 | inactive: 1.63%
O=c1c2ccccc2sn1-c1ccc(Cl)cc1Cl | inconclusive: -44.1%
N=c1n(CCN2CCCCC2)c2ccccc2n1CC(O)COc1ccc(Cl)cc1Cl (stereo unspecified) | inconclusive: -54%
Cc1ccc(CCNC(=O)c2ccc(CSCc3ccccc3Cl)o2)cc1 | inconclusive: -46.6%
Cc1ccc(N)cc1O | inconclusive: -41.7%
O=C(O)c1ccc2c(c1)OCCO2 | inconclusive: -44.7%
COc1ccccc1N1CCN(CCCNC(=O)c2cnn(-c3cccc(Cl)c3)c2C2CCN(C(=O)OC(C)(C)C)CC2)CC1 | inconclusive: -43.6%
COc1cc(CCC(C)=O)ccc1OC(=O)c1c(F)cccc1Cl | inactive: -5.82%
C=CCN(C(=O)CSc1nc2c(sc3ccccc32)c(=O)n1CCN(CC)CC)c1ccccc1 | inconclusive: -51.3%
COc1ccc(C(=O)Nc2cc3c4c(c2)C(C)C(=O)N4CCC3)c(OC)c1 (stereo unspecified) | inconclusive: -58.5%
Cc1ccc(-n2ncc3c(Nc4cccc(C)c4C)ncnc32)cc1 | inconclusive: -51.9%
Cc1cc2nc3c(=O)n(C4CCCCC4)c(=O)[nH]c3nc2cc1N | inconclusive: -41.8%
CSCC(NS(=O)(=O)c1ccc(C)cc1)C(=O)O (stereo unspecified) | inconclusive: -52.3%

Compound | activity change, negative = inhibition
Nc1nc(Sc2c([N+](=O)[O-])cc(C(F)(F)F)cc2[N+](=O)[O-])n[nH]1 | inconclusive: -53.1%
O=C(N/N=C/c1ccncc1)c1cccc(S(=O)(=O)Nc2ccc(Cl)cc2)c1 | inconclusive: -40.5%
COc1ccc(OC)c(NC(=O)Cn2c(CCC(=O)O)ccc2-c2cccs2)c1 | inactive: 0.743%
CC(C)CCNC(=O)COc1ccc2c3c(c(=O)oc2c1)CCC3 | inactive: -12.6%
Cc1cccc(NC(=O)CS(=O)CC(=O)Nc2cnc3ccccc3c2)c1C (stereo unspecified) | inconclusive: -45.4%
COc1cccc(CNC(=O)c2cnc(N3CCCCC3)c3ccccc23)c1 | inconclusive: -42.4%
O=C(N=C1SC2CS(=O)(=O)CC2N1c1c(Cl)cccc1Cl)C1CC1 (stereo unspecified) | inactive: 30.9%
CC(=O)Nc1cccc(C(=O)OCC(=O)c2ccc3c(c2)OCO3)c1 | inconclusive: -59%
Cc1sc(-n2c(C)cc(/C=C3\SC(=S)NC3=O)c2C)c(C#N)c1C | active: -105%
Cc1ccc(S(=O)(=O)NCC(=O)NCc2cc(=O)n(C)c(=O)n2C)cc1C | active: -100%
CC(C)C(OC(=O)c1ccco1)C(=O)NC1CCCCC1 (stereo unspecified) | inconclusive: -52.3%
COc1ccc(S(=O)(=O)NCC(c2ccco2)N2CCN(c3ccc(F)cc3)CC2)cc1C (stereo unspecified) | inconclusive: -47.2%
CCc1cc(-c2n[nH]c(=S)n2-c2ccccc2C)cs1 | inconclusive: -50.6%
COC(=O)c1ccc2c(c1)C(C)(C)C(/C=C/c1ccccc1O)=[N+]2C | inconclusive: -52.6%
CC(/C=C1\SC(=S)N(NS(=O)(=O)c2ccccc2)C1=O)=C\c1ccccc1 | inconclusive: -41.5%
CC(C)(C)c1ccc(-c2nc(SCC(=O)Nc3ccccc3F)n3[nH]c(=O)cc3n2)cc1 | active: -63.8%
CC(C)(C)C(=O)NC(=S)Nc1cc(C(F)(F)F)ccc1N1CCOCC1 | inconclusive: -49.5%
CC(C)(C)c1ccc(C(=O)N2CCC(c3nc4ccccc4o3)CC2)cc1 | inconclusive: -55%
CCOC(=O)c1cc(C)n(CC2CCC(C(=O)Nc3cccc(C(C)=O)c3)CC2)c1C (stereo unspecified) | inactive: 4.7%
Cc1cc(/C=N/n2cnnc2)c(C)n1-c1ccc(OCc2ccc(F)cc2)cc1 | active: -68.1%
